The campaign covered roughly 350,000 compounds. About 9,900 (2.8%) were called active. Inconclusive results, whose numbers are uncertain, are shown with a selection of clear calls. Calls follow the shape of the dose curve; as a rule, active = well fitted activation curve with a large enough effect; inconclusive = small, poorly fitted or top-dose-only effect; inactive = no such curve, though single readings can be large or run the other way. No potency is given beside an inconclusive call; the fits are too rough.
Test: A quantitative high throughput screen for small molecules that induce DNA re-replication in MCF 10a normal breast cells. Also: nearly all actives have a fitted effect of over 50% in size. As to activity, positive = re-replication: % of control where 0% means no effect.
Settings: MCF 10A DNA re-replication, Hoechst nuclear intensity, 48 h; activity, positive = re-replication: at 46.1 µM (top of the series)
For `O=C(O)c1ccc(Nc2nc3ccccc3nc2NS(=O)(=O)c2ccc(F)cc2)cc1`, the Potency was active: 23.1 µM. With `OCCC1CN(Cc2cnc(-c3ccccc3)s2)CCN1C1CCCC1` (stereo unspecified) the “activity, positive = re-replication” value was inactive: 7%. With `CCOc1ccc(CN(C)c2nc(-c3cccnc3)nc3ccccc23)cc1OC` the Potency was inconclusive [activator, single point]. With `O=C(CSc1nnc(-c2cnccn2)n1Cc1ccco1)c1ccc2ccccc2c1` the Potency was inconclusive [activator, partial curve, poor fit]. For `Cc1cc(NC(=O)CSc2nc(C(C)C)nc3sc(C)c(C)c23)no1`, the Potency was inconclusive [activator, single point]. For `COc1ccc(-c2csc(/C(C#N)=C/Nc3cc4oc5ccccc5c4cc3OC)n2)cc1`, the Potency was inconclusive [activator, full curve, poor fit]. With `O=C(NC(=S)NN1CCCCC1c1cccnc1)c1ccc(Cl)cc1Cl` (stereo unspecified) the “activity, positive = re-replication” value was inactive: -1.23%. For `COc1ccc(OC)c(CC(=O)Nc2ccc3c(c2)CCC3)c1`, the Potency was inconclusive [activator, single point]. With `Cc1ccc(Oc2ccc(NC(=O)Cn3ccsc3=N)cc2)cc1` the Potency was inconclusive [activator, single point]. With `Cc1nc(-c2ccc3c(c2)OCCO3)cs1` the “activity, positive = re-replication” value was inactive: -0.902%. In the case of `Cc1nn2c(NCc3ccccn3)cc(C(C)(C)C)nc2c1-c1ccccc1`, the Potency is reported as active: 2.59 µM. With `COc1ccc(NS(=O)(=O)c2ccc3oc(Nc4ccc5c(c4)OCCO5)nc3c2)cc1` the Potency was inconclusive [activator, single point]. For `O=C(Nc1cccc(F)c1)c1ccc(-c2ccccc2C(F)(F)F)o1`, the Potency was inconclusive [activator, single point]. With `C/C(=N/NC(=O)c1ccc(C(C)(C)C)cc1)c1ccccn1` the Potency was inconclusive [activator, full curve, poor fit]. For `COCCn1c(SCC(=O)Nc2ccc(NC(C)=O)cc2)nc2c([nH]c3ccccc32)c1=O`, the Potency was inconclusive [activator, partial curve, poor fit]. For `Cc1ccc(C(=O)NCCN2C3=NC[C@H](C(C)C)N3C[C@H]2Cc2ccc(O)cc2)cc1Br`, the “activity, positive = re-replication” value was inactive: -28%. In the case of `CCCN1C(=O)C(=O)c2cc(Cl)ccc21`, the Potency is reported as active: 20.6 µM. In the case of `CN(C)C=NC(=O)/C(C#N)=C1\CCc2ccccc2N1`, the Potency is reported as inconclusive [activator, partial curve, poor fit]. In the case of `Cc1cc(C)c(C)c(S(=O)(=O)N2C(=S)NC(=O)C2CC(C)C)c1C` (stereo unspecified), the Potency is reported as inconclusive [activator, partial curve, poor fit]. For `COc1ccc(N=Cc2c(O)n(-c3ccc(OC)cc3)c(=O)c3ccccc23)cc1`, the Potency was inconclusive [activator, full curve]. With `Cc1ccc(S(=O)(=O)Nc2cccc3c2O[C@H](CN(C)Cc2ccc(-c4ccccc4)cc2)[C@@H](C)CN([C@H](C)CO)C3=O)cc1` the Potency was inconclusive [activator, single point]. With `NN=C1C(=O)c2cccc3cccc1c23` the Potency was inconclusive [activator, single point]. With `CCOC(=O)Cc1csc(NC(=O)Nc2ccc(OC(F)(F)F)cc2)n1` the “activity, positive = re-replication” value was inactive: 5.45%. With `CCc1nn(-c2ccccc2)c2c1-c1cc(OC)c(OC)cc1C1(N2)C(=O)Nc2ccccc21` (stereo unspecified) the Potency was active: 20.6 µM. In the case of `CC(C)(C)NC(=O)C(c1ccc(-c2ccccc2)cc1)N(C[C@H]1CC[C@@H]([C@@H]2CC[C@H](CO)O2)O1)C(=O)c1ccc(-c2ccccc2)cc1` (stereo partly specified), the “activity, positive = re-replication” value is reported as inactive: -16.6%. In the case of `Cc1cc(C)c2nc(SCCc3ccccc3)nc(C)c2c1`, the Potency is reported as inconclusive [activator, single point]. In the case of `CCN1C(=O)[C@@H]2[C@@H](c3ccc(-c4ccc(Cl)c(Cl)c4)cc3)N3CCC[C@@]3(C(=O)OC)[C@@H]2C1=O`, the “activity, positive = re-replication” value is reported as inactive: 17.6%. For `CCOCCCN(C)C1CCN(C(=O)c2oc3ccccc3c2NC(=O)COc2ccc(F)cc2)CC1`, the Potency was inconclusive [activator, full curve, poor fit]. For `CC(=O)NC(=S)Nc1ccccc1C(=O)Nc1ccccc1`, the “activity, positive = re-replication” value was inactive: -5.96%. For `CC(C(=O)NC1(C#N)CCCCC1)N(C)CC(=O)Nc1ccc(Cl)c(Cl)c1` (stereo unspecified), the “activity, positive = re-replication” value was inactive: 12.4%. With `O=[N+]([O-])c1cc(S(=O)(=O)NCCc2ccccn2)ccc1Cl` the Potency was inconclusive [activator, single point]. In the case of `CCCCCCNC(=O)CC(c1ccccc1)c1cc(Br)ccc1O` (stereo unspecified), the Potency is reported as inconclusive [activator, single point]. In the case of `COC(=O)C1=C(N)c2c(F)cccc2C1(C#N)c1ccc(F)cc1` (stereo unspecified), the Potency is reported as inconclusive [activator, partial curve, poor fit]. For `Cc1ccc(S(=O)(=O)Nc2ccccc2N=Cc2ccc([N+](=O)[O-])cc2[N+](=O)[O-])cc1`, the Potency was inconclusive [activator, single point]. With `Cn1c(-c2ccc(F)c(F)c2)cc2onc(-c3ccccc3)c2c1=O` the Potency was inconclusive [activator, full curve, poor fit]. With `CC(C)NC(=O)c1ccccc1NC(=O)/C=C/c1ccc([N+](=O)[O-])cc1` the Potency was inconclusive [activator, full curve, poor fit]. In the case of `Cn1cccc1/C=N/NC(=O)c1cc2ccccc2cc1O`, the “activity, positive = re-replication” value is reported as inactive: 14.2%. In the case of `Cc1cc(C)c2c(N)c(C(=O)C(C)(C)C)sc2n1`, the Potency is reported as inconclusive [activator, single point]. In the case of `COc1ccc(S(=O)(=O)N2CCOCC2)cc1NC(=O)COC(=O)CCS(=O)(=O)c1ccc(C)cc1`, the “activity, positive = re-replication” value is reported as inactive: -4.99%. With `COc1ccc(NC(=O)CC(C)C)c([N+](=O)[O-])c1` the “activity, positive = re-replication” value was inactive: 2%. With `CCC1CCCCN1C(=O)c1ccc(OC2CCN(C(=O)CCOC)CC2)cc1` (stereo unspecified) the Potency was inconclusive [activator, partial curve, poor fit]. For `CCc1nnc(NS(=O)(=O)c2ccc(NC(=O)/C=C/C(=O)O)cc2)s1`, the “activity, positive = re-replication” value was inactive: 1.06%. In the case of `COc1ccc2c(c1)C(=O)[C@H](O)[C@@H](c1ccc(OC)c(Br)c1)O2`, the Potency is reported as inconclusive [activator, full curve, poor fit]. For `Oc1ccc(-c2nc3c4c(ncn3n2)-c2ccccc2CC42CCCC2)cc1`, the Potency was active: 4.61 µM. For `CSc1nnc(C)c(/C=C/Nc2ccc(F)cc2F)n1`, the Potency was active: 18.4 µM. In the case of `O=C(CNC(=O)c1cccc(S(=O)(=O)N2CCc3ccccc32)c1)Nc1ccccc1Br`, the “activity, positive = re-replication” value is reported as inactive: 10.6%. With `Cc1nc2nc(SCC(=O)c3ccc([N+](=O)[O-])cc3)[nH]c2cc1Br` the Potency was inconclusive [activator, single point]. With `Cc1cc(NC(=O)c2cc(-c3ccccc3)on2)n(-c2ccccc2)n1` the Potency was inconclusive [activator, single point]. In the case of `CC1(C)C[C@H](O)[C@@]23C[C@@H](OC2=O)[C@]2(C)C(=CCC4[C@@]5(C)CC[C@H](O)C(C)(C)C5CC[C@]42C)[C@@H]3C1` (stereo partly specified), the Potency is reported as inconclusive [activator, single point]. For `CC1(C)CC(=O)C2=C(C1)C(c1cn(-c3ccccc3)nc1-c1ccccc1)C(C#N)=C(N)O2` (stereo unspecified), the Potency was inconclusive [activator, single point]. For `COc1ccc(-c2csc(NC(=O)CSc3ncn[nH]3)n2)cc1OC`, the Potency was inconclusive [activator, single point]. In the case of `CCc1nc2ccc(C(=O)Nc3cccc(C(C)=O)c3)cc2nc1CC`, the “activity, positive = re-replication” value is reported as inactive: 10.5%. With `COc1ccccc1C1CCN(C(=O)c2ccccc2)CC1` the Potency was inconclusive [activator, full curve, poor fit]. In the case of `CC(NC(=O)/C=C/c1ccc(Br)cc1)c1ccc(Cl)cc1` (stereo unspecified), the Potency is reported as inconclusive [activator, full curve, poor fit]. With `CCn1ncc(Br)c1C(=O)Nc1ccc(F)cc1F` the Potency was active: 16.4 µM. With `CC1CC(C)(C)N2C(=O)C3(Nc4ccccc4S3)c3cccc1c32` (stereo unspecified) the Potency was inconclusive [activator, single point]. With `COC(=O)N/N=C/c1cn(Cc2ccc(Cl)cc2Cl)c2ccccc12` the Potency was inconclusive [activator, single point]. For `Cn1c(=O)c2c(nc(CN3CCc4ccccc4C3)n2Cc2ccc(Cl)cc2)n(C)c1=O`, the Potency was inconclusive [activator, single point]. For `O=C(CNC(=O)c1ccc(F)cc1)N/N=C/c1cccnc1`, the “activity, positive = re-replication” value was inactive: 13%. In the case of `Cc1cc(NC(=O)COC(=O)c2cnccn2)ccc1Br`, the “activity, positive = re-replication” value is reported as inactive: -6.48%. For `COCCCn1c(SCC(=O)c2ccccc2)nc2ccccc2c1=O`, the Potency was inconclusive [activator, single point]. For `O=C(CCC1CCCC1)NCCS(=O)(=O)N1CCN(c2ccccc2)CC1`, the Potency was inconclusive [activator, partial curve, poor fit]. For `Cc1[nH]c2ccccc2c1Cc1nnc(SCC(=O)NCc2ccco2)o1`, the Potency was inconclusive [activator, single point]. In the case of `Cc1ccc(C(C(=O)NCC2CCCO2)N(Cc2ccccc2)C(=O)c2ccc(-c3ccccc3)[nH]2)o1` (stereo unspecified), the Potency is reported as inconclusive [activator, single point]. For `O=C(CCCN1C(=O)/C(=C\c2cccs2)SC1=S)Nc1cccnc1`, the Potency was inconclusive [activator, single point]. In the case of `CCc1nc(SCC(=O)c2cccs2)c2oc3ccccc3c2n1`, the Potency is reported as inconclusive [activator, partial curve, poor fit].

Source: PubChem BioAssay AID624296 (National Center for Advancing Translational Sciences (NCATS), 2012)
Potency is read from the fitted curve at half-maximal effect; tags tell the direction and shape of the fitted curve.
